Experimental data taken from patent US20130336953A1, “USE OF CREATINE KINASE FOR PREVENTING OR TREATING ADDICTION TO OPIATES” (UNIVERSITÉ DE STRABOURG, priority 2011, published 2013).

Columns and labels:
[1] = system: phosphatidylethanolamine-binding protein (PEBP); conditions: cited from earlier work
[2] = Morphine-type immunoreactivity of purified creatine kinase, Western blot with 6D6 antibody; format: binding; conditions: for morphine-type immunoreactivity: 2 μg on SDS-PAGE, 6D6 antibody, bands at 42 and 84 kDa (monomer and dimer); for binding of morphine and/or morphine derivatives: overall conclusion of the experiments
Method: For this purpose, 2 μg of human creatine kinase BB was deposited on SDS-PAGE, then transferred onto membrane treated with the 6D6 antibody.

[3] = Dissociation of the morphine-type molecule from creatine kinase by urea buffer TP5 with or without heat treatment; format: binding; conditions: 0.5 μg on gel; 100° C., 10 minutes; 6D6 antibody
Method: The dissociation of the morphine-type molecule of creatine kinase BB (deposit 0.5 μg on gel) treated in the presence of urea (TP5) whether or not combined with heat treatment (100° C., 10 minutes), was tested and immunodetected by Western blotting by means of the anti-morphine antibody 6D6.

[4] = in vivo; cited from earlier work
[5] = system: opiate-creatine kinase B complexes; assay: Dissociation of opiate-creatine kinase B complexes by treatments; format: binding; conditions: treatment with antagonist
[6] = biological target: creatine kinase B—alkaloids complexes (Mus musculus, UniProt Q04447); assay: Competition test on mouse brain extracts with naloxone, Western blot with anti-morphine antibody 6D6; conditions: mouse brain extracts incubated with naloxone 12 h at 37° C., ratio 1:1 m/m; urea buffer without heat treatment; 6D6 antibody
Sequence of creatine kinase B—alkaloids complexes (Q04447 whole entry, one chain of several): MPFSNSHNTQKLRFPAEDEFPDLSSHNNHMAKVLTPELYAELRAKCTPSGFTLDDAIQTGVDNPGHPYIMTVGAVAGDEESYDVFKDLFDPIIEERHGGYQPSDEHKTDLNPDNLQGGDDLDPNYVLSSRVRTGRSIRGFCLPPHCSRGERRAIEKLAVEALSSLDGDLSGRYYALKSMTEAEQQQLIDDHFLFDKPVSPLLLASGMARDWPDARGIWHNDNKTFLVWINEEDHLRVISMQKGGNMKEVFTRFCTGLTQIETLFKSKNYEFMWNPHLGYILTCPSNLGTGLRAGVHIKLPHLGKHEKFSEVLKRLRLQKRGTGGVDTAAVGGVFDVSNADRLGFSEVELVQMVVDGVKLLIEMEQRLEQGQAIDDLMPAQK

human creatine kinase BB = human creatine kinase BB (Homo sapiens, UniProt P12277); assay: Incubation of human creatine kinase BB with naloxone, Western blot; format: binding
Sequence of human creatine kinase BB (P12277 whole entry): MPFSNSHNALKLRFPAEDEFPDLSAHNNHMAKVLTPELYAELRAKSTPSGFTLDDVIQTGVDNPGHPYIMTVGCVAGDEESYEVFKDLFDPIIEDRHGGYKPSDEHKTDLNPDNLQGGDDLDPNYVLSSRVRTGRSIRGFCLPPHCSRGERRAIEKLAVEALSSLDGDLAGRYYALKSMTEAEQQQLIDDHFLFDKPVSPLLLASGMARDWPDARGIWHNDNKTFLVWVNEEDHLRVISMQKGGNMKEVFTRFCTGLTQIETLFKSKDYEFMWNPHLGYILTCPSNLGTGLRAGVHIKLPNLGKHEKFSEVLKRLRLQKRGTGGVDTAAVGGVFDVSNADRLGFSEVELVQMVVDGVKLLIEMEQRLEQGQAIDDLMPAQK

[7] = system: anti-morphine antibody 6D6; conditions: cited from earlier work
[8] = biological target: rabbit creatine kinase MM (Oryctolagus cuniculus, UniProt P00563); assay: Effect of morphine antagonist on rabbit creatine kinase MM; conditions: data not presented
Sequence of rabbit creatine kinase MM (P00563 whole entry): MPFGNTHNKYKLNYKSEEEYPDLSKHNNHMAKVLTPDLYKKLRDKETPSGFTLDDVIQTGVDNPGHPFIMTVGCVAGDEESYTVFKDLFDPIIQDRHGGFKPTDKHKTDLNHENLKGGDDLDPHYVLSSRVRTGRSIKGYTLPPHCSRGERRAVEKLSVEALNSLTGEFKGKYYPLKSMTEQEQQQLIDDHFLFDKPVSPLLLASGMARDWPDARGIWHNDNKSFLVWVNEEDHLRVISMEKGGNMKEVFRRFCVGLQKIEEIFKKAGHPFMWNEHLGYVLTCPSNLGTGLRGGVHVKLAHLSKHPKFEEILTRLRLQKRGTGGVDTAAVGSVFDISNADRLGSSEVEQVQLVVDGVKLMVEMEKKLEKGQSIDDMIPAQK

Compound: CN1CC[C@]23c4c5ccc(O)c4O[C@H]2[C@@H](O)C=C[C@H]3[C@H]1C5 [morphine]
- binding affinity to PEBP [1]: does not have any affinity

Compound: creatine kinase BB: Commercial purified human brain creatine kinase BB (ref. 30-AC55, Fitzgerald), active form
- morphine-type immunoreactivity [2]: two immunoreactive bands
- binding of morphine and/or morphine derivatives [2]: bind strongly, noncovalently
- morphine-type immunolabeling after urea (TP5) with or without heat treatment [3]: only lost when the complex has undergone the heat treatments combined with urea

Compound: CN1CC[C@]23c4c5ccc(O[C@@H]6O[C@H](C(=O)O)[C@@H](O)[C@H](O)[C@H]6O)c4O[C@H]2[C@@H](O)C=C[C@H]3[C@H]1C5 [M3G, morphine-3-glucuronide]
- binding affinity to PEBP [1]: low affinity
- analgesic activity [4]: devoid of analgesic activity

Compound: CN1CC[C@]23c4c5ccc(O)c4O[C@H]2[C@@H](O[C@@H]2O[C@H](C(=O)O)[C@@H](O)[C@H](O)[C@H]2O)C=C[C@H]3[C@H]1C5 [M6G, morphine-6-glucuronide]
- binding affinity to PEBP [1]: low affinity

Compound: C=CCN1CC[C@]23c4c5ccc(O)c4O[C@H]2C(=O)CC[C@@]3(O)[C@H]1C5 [naloxone]
- dissociation of opiate-creatine kinase B complexes [5]: dissociate
- alkaloid labeling relative to the control experiments [6]: significantly decreased
- alkaloid labeling (morphine-type molecule) relative to the control experiments (human creatine kinase BB; creatine kinase BB 1 μg incubated with naloxone 12 h at 37° C., urea buffer TP5 without heat treatment, 6D6 antibody): significantly decreased
- immunoreactivity with the anti-CK-BB antibody (human creatine kinase BB; same samples, incubated with naloxone 12 h at 37° C., data not presented): unchanged
- cross-reaction with antibody 6D6 in ELISA [7]: did not display cross-reaction

Compound: O=C1CC[C@@]2(O)[C@H]3Cc4ccc(O)c5c4[C@@]2(CCN3CC2CC2)[C@H]1O5 [naltrexone]
- dissociation of opiate-creatine kinase B complexes [5]: dissociate

Compound: CK-M: Muscular creatine kinase, rabbit, ref. C3755, Sigma Aldrich
- replacement of bound morphine-type molecules by a morphine analog (alkaloid labeling) [8]: Identical results
- morphine-type immunoreactivity [2]: identical result
- binding of morphine and/or morphine derivatives [2]: bind strongly, noncovalently
- morphine-type immunolabeling after urea (TP5) with or without heat treatment [3]: only lost when the complex has undergone the heat treatments combined with urea
